Where a chain is given by its changes, count along the chain named. Numbers in names are those of the source. ± gives the standard deviation of the averaged measurements. Laboratory Escherichia coli strains with one amino-acid change in an essential protein, pooled on minimal glucose agar with carbenicillin or gentamicin at twice the control MIC (plus kanamycin and chloramphenicol for the plasmids), 48 h. Fold change of barcode share against drug-free plates; higher = less susceptible. Active = above 20 in both replicates (the paper's putatively resistant). '<' = one read or none on drug, '>' = one read or none on a drug-free plate. Shares are relative, so most strains fall below 1 when a few take over. Listed are strains with at least 15 reads on both drug-free plates, and hits; most hits rest on fewer reference reads. Replicate rank correlation about 0.5. Edits are read from barcodes.
B1: murI V90A (protein)
chain: MATKLQDGNTPCLAATPSEPRPTVLVFDSGVGGLSVYDEIRHLLPDLHYIYAFDNVAFPYGEKSEAFIVERVVAIVTAVQERYPLALAVAACNTASTVSLPALREKFDFPVVGVVPAIKPAARLTANGIVGLLATRGTVKRSYTHELIARFANECQIEMLGSAEMVELAEAKLHGEDVSLDALKRILRPWLRMKEPPDTVVLGCTHFPLLQEELLQVLPEGTRLVDSGAAIARRTAWLLEHEAPDAKSADANIAFCMAMTPGAEQLLPVLQRYGFETLEKLAVLG
B2: murI V90D (protein)
chain: B1 chain with A90D
B3: murI L132A (protein)
chain: B1 chain with A90V, L132A
B4: murI V76A (protein)
chain: B1 chain with V76A, A90V
B5: murI V201A (protein)
chain: B1 chain with A90V, V201A
B6: murI L25A (protein)
chain: B1 chain with L25A, A90V
B7: nadE I79A (protein)
chain: MTLQQQIIKALGAKPQINAEEEIRRSVDFLKSYLQTYPFIKSLVLGISGGQDSTLAGKLCQMAINELRLETGNESLQFAAVRLPYGVQADEQDCQDAIAFIQPDRVLTVNIKGAVLASEQALREAGIELSDFVRGNEKARERMKAQYSIAGMTSGVVVGTDHAAEAITGFFTKYGDGGTDINPLYRLNKRQGKQLLAALACPEHLYKKAPTADLEDDRPSLPDEVALGVTYDNIDDYLEGKNVPQQVARTIENWYLKTEHKRRPPITVFDDFWKK
B8: nadE F78A (protein)
chain: B7 chain with F78A, A79I
B9: nadE F78W (protein)
chain: B7 chain with F78W, A79I
B10: nadA V234W (protein)
chain: MSVMFDPDTAIYPFPPKPTPLSIDEKAYYREKIKRLLKERNAVMVAHYYTDPEIQQLAEETGGCISDSLEMARFGAKHPASTLLVAGVRFMGETAKILSPEKTILMPTLQAECSLDLGCPVEEFNAFCDAHPDRTVVVYANTSAAVKARADWVVTSSIAVELIDHLDSLGEKIIWAPDKHLGRYVQKQTGGDILCWQGACIVHDEFKTQALTRLQEEYPDAAILVHPESPQAIWDMADAVGSTSQLIAAAKTLPHQRLIVATDRGIFYKMQQAVPDKELLEAPTAGEGATCRSCAHCPWMAMNGLQAIAEALEQEGSNHEVHVDERLRERALVPLNRMLDFAATLRG
B11: murG V121P (protein)
chain: MSGQGKRLMVMAGGTGGHVFPGLAVAHHLMAQGWQVRWLGTADRMEADLVPKHGIEIDFIRISGLRGKGIKALIAAPLRIFNAWRQARAIMKAYKPDVVLGMGGYVSGPGGLAAWSLGIPPVLHEQNGIAGLTNKWLAKIATKVMQAFPGAFPNAEVVGNPVRTDVLALPLPQQRLAGREGPVRVLVVGGSQGARILNQTMPQVAAKLGDSVTIWHQSGKGSQQSVEQAYAEAGQPQHKVTEFIDDMAAAYAWADVVVCRSGALTVSEIAAAGLPALFVPFQHKDRQQYWNALPLEKAGAAKIIEQPQLSVDAVANTLAGWSRETLLTMAERARAASIPDATERVANEVSRVARA
B12: nadD L26Q (protein)
chain: MKSLQALFGGTFDPVHYGHLKPVETQANLIGLTRVTIIPNNVPPHRPQPEANSVQRKHMLELAIADKPLFTLDERELKRNAPSYTAQTLKEWRQEQGPDVPLAFIIGQDSLLTFPTWYEYETILDNAHLIVCRRPGYPLEMAQPQYQQWLEDHLTHNPEDLHLQPAGKIYLAETPWFNISATIIRERLQNGESCEDLLPEPVLTYINQQGLYR
B13: nadD L26D (protein)
chain: B12 chain with Q26D

target: Escherichia coli (laboratory strain); experiment: barcode share on antibiotic plates over drug-free plates; higher = less susceptible; conditions: antibiotic: gentamicin; 2× MIC (MIC 0.45 µg/mL)
Protocol: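 A pool of E. coli strains, each edited to carry one amino-acid change in an essential protein, was grown for 48 h on minimal glucose agar with or without antibiotic; strain barcodes were sequenced; mean of two replicates.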

Protein	fold change of barcode share
B1	0.00585 ± 0.0026
B2	0.00356 ± 0.0002
B3	< 0.0186
B4	< 0.0182
B5	< 0.0181
B6	< 0.0119
B7	< 0.0152
B8	< 0.0143
B9	< 0.0206
B10	0.0948 ± 0.099
B11	< 0.00306
B12	< 0.0198
B13	< 0.0152
